Targets with the largest changes are over-represented here; the source holds about 21,000 in all.

Compound in this experiment: CC1Cc2ccccc2N1C(=O)C1CCCN(C1)C(=O)CCl (mixture of isomers) [TRIM25 ligand 11 (diastereomer mixture)]
Kind of experiment: probe-labelled cysteine peptide fold change vs DMSO (competition) (log2 fold change); higher = less target engagement (more negative = stronger competition). The settings on record: THP-1, incubation time: 4 h.
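Also: competitive chemoproteomic profiling in live THP-1 cells with an iodoacetamide desthiobiotin (IA-DTB) probe, comparing probe-labelled peptide intensities in compound-treated cells against DMSO-treated controls.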

UniProt Q9BZQ8, sequence (Q9BZQ8 whole entry, looked up): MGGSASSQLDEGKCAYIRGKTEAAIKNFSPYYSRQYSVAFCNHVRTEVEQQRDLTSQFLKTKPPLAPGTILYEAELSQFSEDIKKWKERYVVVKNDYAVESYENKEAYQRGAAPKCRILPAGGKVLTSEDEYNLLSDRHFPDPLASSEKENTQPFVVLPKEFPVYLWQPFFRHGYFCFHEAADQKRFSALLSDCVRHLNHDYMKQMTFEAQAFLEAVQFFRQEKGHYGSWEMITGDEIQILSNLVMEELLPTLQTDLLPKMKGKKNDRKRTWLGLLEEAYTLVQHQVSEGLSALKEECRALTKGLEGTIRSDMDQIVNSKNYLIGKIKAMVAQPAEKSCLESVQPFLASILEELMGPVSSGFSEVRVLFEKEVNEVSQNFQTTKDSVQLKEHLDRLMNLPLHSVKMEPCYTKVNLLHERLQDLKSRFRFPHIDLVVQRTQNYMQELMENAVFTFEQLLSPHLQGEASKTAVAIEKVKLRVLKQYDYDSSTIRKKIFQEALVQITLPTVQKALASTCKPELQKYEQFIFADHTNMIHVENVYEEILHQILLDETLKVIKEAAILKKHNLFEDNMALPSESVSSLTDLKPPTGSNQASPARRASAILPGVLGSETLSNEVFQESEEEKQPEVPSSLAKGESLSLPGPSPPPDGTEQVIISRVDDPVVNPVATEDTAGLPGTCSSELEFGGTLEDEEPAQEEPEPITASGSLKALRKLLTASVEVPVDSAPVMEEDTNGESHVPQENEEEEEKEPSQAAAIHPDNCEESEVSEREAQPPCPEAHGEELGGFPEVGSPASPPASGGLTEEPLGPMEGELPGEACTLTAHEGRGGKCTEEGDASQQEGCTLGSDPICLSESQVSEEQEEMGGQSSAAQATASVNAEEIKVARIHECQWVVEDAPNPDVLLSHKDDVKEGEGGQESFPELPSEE
UniProt Q9NZB2, sequence (Q9NZB2 whole entry, looked up): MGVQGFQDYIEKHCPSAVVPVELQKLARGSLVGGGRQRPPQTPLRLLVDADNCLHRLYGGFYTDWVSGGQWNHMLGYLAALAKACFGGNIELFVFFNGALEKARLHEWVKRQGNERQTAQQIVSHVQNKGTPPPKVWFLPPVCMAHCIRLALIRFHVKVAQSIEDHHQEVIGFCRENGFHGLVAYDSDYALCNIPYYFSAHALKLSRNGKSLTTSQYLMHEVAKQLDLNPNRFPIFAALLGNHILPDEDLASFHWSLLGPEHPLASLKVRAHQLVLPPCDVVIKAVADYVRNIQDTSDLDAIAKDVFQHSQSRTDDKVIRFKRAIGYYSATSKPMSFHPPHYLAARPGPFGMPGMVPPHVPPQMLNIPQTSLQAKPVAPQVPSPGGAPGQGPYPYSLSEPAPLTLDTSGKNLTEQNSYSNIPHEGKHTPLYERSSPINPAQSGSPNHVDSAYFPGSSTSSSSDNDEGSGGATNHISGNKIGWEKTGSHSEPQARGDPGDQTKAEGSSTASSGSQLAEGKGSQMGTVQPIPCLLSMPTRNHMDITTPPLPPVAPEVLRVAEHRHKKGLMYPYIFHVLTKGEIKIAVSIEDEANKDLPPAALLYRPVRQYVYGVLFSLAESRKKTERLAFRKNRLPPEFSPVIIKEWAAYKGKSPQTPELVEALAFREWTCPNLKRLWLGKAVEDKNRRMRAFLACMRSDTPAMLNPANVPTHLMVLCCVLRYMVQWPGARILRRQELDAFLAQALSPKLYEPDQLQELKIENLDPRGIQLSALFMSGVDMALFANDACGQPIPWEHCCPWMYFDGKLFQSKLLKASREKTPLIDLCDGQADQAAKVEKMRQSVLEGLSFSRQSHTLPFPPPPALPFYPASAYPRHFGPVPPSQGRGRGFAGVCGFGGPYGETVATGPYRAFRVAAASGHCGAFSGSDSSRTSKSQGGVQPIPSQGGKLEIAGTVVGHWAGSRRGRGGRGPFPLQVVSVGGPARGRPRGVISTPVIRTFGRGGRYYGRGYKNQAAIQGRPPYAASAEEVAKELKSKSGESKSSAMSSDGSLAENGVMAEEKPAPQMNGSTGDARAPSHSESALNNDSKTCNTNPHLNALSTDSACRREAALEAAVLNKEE
UniProt Q9NVH0, sequence (Q9NVH0 whole entry, looked up): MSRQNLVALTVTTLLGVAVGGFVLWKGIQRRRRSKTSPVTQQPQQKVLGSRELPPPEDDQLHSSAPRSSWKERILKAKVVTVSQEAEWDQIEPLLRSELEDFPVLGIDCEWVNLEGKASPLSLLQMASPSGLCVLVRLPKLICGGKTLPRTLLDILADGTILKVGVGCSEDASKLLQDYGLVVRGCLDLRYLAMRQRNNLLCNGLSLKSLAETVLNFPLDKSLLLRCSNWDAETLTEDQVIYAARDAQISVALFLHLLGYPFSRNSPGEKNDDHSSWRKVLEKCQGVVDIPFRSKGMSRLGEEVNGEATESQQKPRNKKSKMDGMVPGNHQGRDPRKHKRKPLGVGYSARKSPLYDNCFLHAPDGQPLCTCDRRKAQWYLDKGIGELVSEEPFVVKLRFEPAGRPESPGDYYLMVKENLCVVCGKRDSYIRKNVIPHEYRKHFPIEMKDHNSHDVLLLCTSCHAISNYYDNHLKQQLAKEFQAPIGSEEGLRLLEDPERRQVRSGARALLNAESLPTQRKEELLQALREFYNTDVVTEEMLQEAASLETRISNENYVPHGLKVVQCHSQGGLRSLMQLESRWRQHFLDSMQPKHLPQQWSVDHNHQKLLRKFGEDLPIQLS
UniProt Q92889, sequence (Q92889 whole entry, looked up): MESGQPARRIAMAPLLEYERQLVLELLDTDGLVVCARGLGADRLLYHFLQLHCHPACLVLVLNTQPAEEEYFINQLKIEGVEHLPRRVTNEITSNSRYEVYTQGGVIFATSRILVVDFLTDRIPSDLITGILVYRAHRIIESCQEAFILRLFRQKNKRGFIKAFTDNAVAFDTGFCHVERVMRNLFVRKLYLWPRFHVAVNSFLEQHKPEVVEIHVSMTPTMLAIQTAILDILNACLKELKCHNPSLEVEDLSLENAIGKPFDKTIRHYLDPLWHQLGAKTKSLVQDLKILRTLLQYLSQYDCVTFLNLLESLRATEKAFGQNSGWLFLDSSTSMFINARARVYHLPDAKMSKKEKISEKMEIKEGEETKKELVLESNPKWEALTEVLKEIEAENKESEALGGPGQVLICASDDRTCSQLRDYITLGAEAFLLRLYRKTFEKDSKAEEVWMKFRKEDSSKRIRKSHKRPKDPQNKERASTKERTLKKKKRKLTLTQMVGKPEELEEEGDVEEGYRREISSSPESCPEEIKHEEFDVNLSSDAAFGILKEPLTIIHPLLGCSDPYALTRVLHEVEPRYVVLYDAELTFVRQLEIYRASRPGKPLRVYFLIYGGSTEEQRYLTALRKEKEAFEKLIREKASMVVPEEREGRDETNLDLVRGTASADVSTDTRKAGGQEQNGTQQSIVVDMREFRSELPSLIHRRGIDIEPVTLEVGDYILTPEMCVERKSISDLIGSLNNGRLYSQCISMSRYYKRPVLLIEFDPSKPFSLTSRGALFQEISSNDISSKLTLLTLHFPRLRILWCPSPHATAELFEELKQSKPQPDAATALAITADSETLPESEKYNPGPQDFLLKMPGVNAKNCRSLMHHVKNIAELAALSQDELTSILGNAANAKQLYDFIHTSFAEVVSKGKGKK
UniProt Q96TA1, sequence (Q96TA1 whole entry, looked up): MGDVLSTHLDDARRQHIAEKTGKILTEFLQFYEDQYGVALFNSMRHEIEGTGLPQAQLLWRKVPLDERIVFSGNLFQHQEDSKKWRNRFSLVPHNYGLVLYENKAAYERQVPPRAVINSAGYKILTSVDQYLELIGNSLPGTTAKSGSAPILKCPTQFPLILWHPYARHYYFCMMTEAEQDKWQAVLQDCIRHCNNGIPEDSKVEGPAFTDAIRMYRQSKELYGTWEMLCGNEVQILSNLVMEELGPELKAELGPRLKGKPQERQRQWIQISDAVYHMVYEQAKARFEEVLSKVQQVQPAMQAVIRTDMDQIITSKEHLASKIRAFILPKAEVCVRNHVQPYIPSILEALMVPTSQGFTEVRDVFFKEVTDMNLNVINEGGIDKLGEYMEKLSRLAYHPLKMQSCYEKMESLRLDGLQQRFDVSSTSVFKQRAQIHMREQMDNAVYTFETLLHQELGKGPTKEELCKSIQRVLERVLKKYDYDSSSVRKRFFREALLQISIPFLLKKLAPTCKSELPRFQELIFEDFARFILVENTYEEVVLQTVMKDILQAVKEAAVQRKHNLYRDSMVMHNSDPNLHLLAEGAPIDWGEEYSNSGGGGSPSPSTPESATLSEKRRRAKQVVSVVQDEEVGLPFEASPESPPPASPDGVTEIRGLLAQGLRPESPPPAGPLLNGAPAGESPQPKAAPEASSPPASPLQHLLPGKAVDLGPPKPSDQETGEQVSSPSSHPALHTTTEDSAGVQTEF

In the case of “FAM129B_Q96TA1_194_HCNNGIPEDSK (UniProt Q96TA1)”, the “probe-labelled cysteine peptide fold change” value is, setting by setting: (10 µM) 0.0587; (50 µM) 0.107.

As for “EIF3I_Q13347_81_LWDCETGK (UniProt Q13347)”, the “probe-labelled cysteine peptide fold change” value is, setting by setting: (10 µM) 0.0345; (50 µM) -0.0868.

On to “FLNB_O75369_1081_GAGTGGLGLTVEGPCEAK (UniProt O75369)”, for which the “probe-labelled cysteine peptide fold change” value (10 µM) was -0.138 and the “probe-labelled cysteine peptide fold change” value (50 µM) is -0.0358.

With “FAM129A_Q9BZQ8_891_IHECQWVVEDAPNPDVLLSHKDDVK (UniProt Q9BZQ8)”, the “probe-labelled cysteine peptide fold change” value reads like this: (10 µM) -0.122; (50 µM) -0.306.

Take “EIF3CL_B5ME19_568+572_TCAILCHIYHHALHSR<|>EIF3C_Q99613_567+571_TCAILCHIYHHALHSR (UniProt Q99613+B5ME19)”: the “probe-labelled cysteine peptide fold change” value reads like this: (10 µM) 0.432; (50 µM) 0.612.

For “FAM120A_Q9NZB2_669_SPQTPELVEALAFREWTCPNLK (UniProt Q9NZB2)”, the “probe-labelled cysteine peptide fold change” value runs as follows: (10 µM) -0.577; (50 µM) -0.435.

Regarding “EXD2_Q9NVH0_133_ASPLSLLQMASPSGLCVLVR (UniProt Q9NVH0)”, the “probe-labelled cysteine peptide fold change” value runs as follows: (10 µM) -0.255; (50 µM) -0.992.

Take “EFEMP1_Q12805_298_LNCEDIDECR (UniProt Q12805)”: the “probe-labelled cysteine peptide fold change” value worked out at 0.34 (10 µM) and 0.306 (50 µM).

For “EIF3CL_B5ME19_481_DEAQVCAIIER<|>EIF3C_Q99613_480_DEAQVCAIIER (UniProt Q99613+B5ME19)”, the “probe-labelled cysteine peptide fold change” value came out at 0.0299 (10 µM) and 0.0311 (50 µM).

With “EFEMP1_Q12805_338_TCQDINECETTNECREDEMCWNYHGGFR (UniProt Q12805)”, the “probe-labelled cysteine peptide fold change” value by setting is: (10 µM) 0.561; (50 µM) 0.0993.

Take “EIF5B_O60841_853_RLAHCEELR (UniProt O60841)”: the “probe-labelled cysteine peptide fold change” value reads like this: (10 µM) 0.132; (50 µM) 0.127.

Consider “ERCC4_Q92889_723_GIDIEPVTLEVGDYILTPEMCVER (UniProt Q92889)”, for which the “probe-labelled cysteine peptide fold change” value is, setting by setting: (10 µM) -0.0833; (50 µM) -0.0298.

On to “EIF3I_Q13347_99_TCGFDFGGNIIMFSTDK (UniProt Q13347)”, for which the “probe-labelled cysteine peptide fold change” value was 0.0398 (10 µM) and -0.0272 (50 µM).

For the origin of these results see the supplement of paper PMC12067093, “Discovery and optimisation of a covalent ligand for TRIM25 and its application to targeted protein ubiquitination” (Chemical Science, 2025).
